Among the data in article PMC2828547 are binding values, retold here.

Amino acid sequences for entries named in this document (tags omitted).
UniProt Q13838: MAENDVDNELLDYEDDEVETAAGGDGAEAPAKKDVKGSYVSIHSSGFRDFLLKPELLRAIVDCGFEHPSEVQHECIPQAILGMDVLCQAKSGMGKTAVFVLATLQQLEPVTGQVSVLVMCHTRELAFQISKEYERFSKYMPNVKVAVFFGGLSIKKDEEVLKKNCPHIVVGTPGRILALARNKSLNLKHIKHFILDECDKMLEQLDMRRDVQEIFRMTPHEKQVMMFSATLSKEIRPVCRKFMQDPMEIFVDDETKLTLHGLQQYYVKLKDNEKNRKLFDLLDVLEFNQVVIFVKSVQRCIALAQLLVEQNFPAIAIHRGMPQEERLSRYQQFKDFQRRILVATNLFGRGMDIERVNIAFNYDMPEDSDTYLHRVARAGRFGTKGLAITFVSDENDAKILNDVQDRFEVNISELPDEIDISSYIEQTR

In one assay the target is GST-UAP56 (UniProt Q13838). Put plainly: pull-down; GST-UAP56 with 35S-labeled UIF proteins generated with rabbit reticulocyte lysate; only the target purified.
A further assay has as its target T1, GST-NXF1-p15 (UniProt Q9UBU9).
T1 sequence 1: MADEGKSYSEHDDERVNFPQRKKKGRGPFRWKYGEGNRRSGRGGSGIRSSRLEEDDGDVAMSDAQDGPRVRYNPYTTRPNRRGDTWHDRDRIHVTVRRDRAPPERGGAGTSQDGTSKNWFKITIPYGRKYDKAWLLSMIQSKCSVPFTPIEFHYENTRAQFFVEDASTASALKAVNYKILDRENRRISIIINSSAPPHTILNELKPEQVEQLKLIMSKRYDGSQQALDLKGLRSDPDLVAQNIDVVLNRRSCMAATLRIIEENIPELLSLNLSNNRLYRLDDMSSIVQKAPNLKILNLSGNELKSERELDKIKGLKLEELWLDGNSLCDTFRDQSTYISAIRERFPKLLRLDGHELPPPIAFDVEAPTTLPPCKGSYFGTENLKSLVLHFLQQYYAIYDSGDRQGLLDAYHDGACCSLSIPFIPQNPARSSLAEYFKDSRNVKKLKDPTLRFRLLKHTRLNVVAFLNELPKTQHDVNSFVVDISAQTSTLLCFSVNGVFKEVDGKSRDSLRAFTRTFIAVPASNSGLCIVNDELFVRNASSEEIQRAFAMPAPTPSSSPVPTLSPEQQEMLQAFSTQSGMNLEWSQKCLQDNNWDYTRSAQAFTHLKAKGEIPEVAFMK
T1 sequence 2: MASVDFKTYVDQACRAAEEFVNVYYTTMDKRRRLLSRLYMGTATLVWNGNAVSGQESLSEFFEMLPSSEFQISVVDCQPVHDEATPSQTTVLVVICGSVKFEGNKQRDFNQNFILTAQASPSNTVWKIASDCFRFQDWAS
Put plainly: pull-down; competition: GST-NXF1-p15 complexed with GB1-UIF, increasing amounts of GB1-6His-REF2-I; Coomassie staining; both purified.

Assay [1] deals with T2, GST fusion of NXF1 (Figure 2B) (UniProt Q9UBU9).
T2 sequence: T1 sequence 1
Put plainly: pull-down; GST fusion proteins with purified UIF in the presence of RNase; Coomassie staining; both purified.

A further assay addresses T3, FLAG-UIF (human) (UniProt Q96QD9).
T3 sequence: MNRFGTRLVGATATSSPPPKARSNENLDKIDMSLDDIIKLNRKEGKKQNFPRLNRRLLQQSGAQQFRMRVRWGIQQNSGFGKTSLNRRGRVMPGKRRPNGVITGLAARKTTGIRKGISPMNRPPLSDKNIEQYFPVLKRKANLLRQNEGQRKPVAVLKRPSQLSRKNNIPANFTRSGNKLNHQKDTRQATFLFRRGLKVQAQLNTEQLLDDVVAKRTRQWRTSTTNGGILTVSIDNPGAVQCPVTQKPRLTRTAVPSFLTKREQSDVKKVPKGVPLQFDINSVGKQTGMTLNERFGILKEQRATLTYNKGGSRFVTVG
Put plainly: co-IP; recombinant NXF1-p15 added in increasing amounts to the FLAG-UIF / Myc UAP56 immunoprecipitation; read out as displacement of UAP56; only the binder purified.

These are yes or no findings as the source states them, for the method shown. For some of these results: Binding seen in cells or lysates may run through a third protein. Some entries that bind do so weakly or less than the wild type. For some of these results: Tags and fused reporters may be left off the sequences shown.

B1: 35S-labeled UIF (protein, UniProt Q96QD9 1-318)
chain: T3 sequence
modifications: 35S-labeled
On to B1, for which, in the assay with GST-UAP56, the binding result is given as “binds”.

B2: GB1-6His-UIF (protein, UniProt Q96QD9 1-318)
chain: T3 sequence
As for B2, the binding entry in the assay with GST-NXF1-p15 is “binds”.

B3: purified UIF (recombinant) (protein, UniProt Q96QD9 1-318)
chain: T3 sequence
As to B3, the binding entry in assay [1] was “binds”.

B4: recombinant NXF1-p15 (complex, UniProt Q9UBU9 1-619; Q9UKK6 1-140)
chain 1: T1 sequence 1
chain 2: T1 sequence 2
B4: the binding entry with FLAG-UIF (human) was “binds”.
